According to PubChem BioAssay AID504466 (National Center for Advancing Translational Sciences (NCATS), 2011):
The whole screen tested about 330,000 compounds, of which about 4,200 (1.3%) were called active. The inconclusive results got no clear call from the source; some entries with a clear call stand among them for comparison. The call rests on the fitted dose curve; in most records, active means well fitted activation curve with a large enough effect; inconclusive means small, poorly fitted or top-dose-only effect; inactive means no such curve, though single readings can be large or run the other way. Potencies of inconclusive entries are doubtful fits and often do not repeat.

Test: qHTS screen for small molecules that induce genotoxicity in human embryonic kidney (HEK293T) cells expressing luciferase-tagged ELG1; further: nearly all actives have a fitted effect of over 60% in size; on activity change, positive = activation: % of control where 0% means no effect
Details: HEK293T ELG1-luciferase reporter, luminescence, 16 h; series mostly up to 46 µM; activity change, positive = activation: at the top concentration
In short: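 ELG1-luciferase HEK293T cells, 2,000/well; compound pinned in; 16 hr, 37 °C, 5% CO2; ONE-Glo, 30 min RT; luminescence on CCD imager.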
Potency means the concentration at half of the fitted maximal effect; tags describe the fitted curve by direction and shape.

Structure (SMILES) | activity change, positive = activation | Potency
COc1cc(CNn2cnnc2)ccc1OCC(=O)NC1CCCCC1 | inactive: 5.12% | –
FCCCOc1ccc(-c2nccc(-c3ccc(Br)cc3)n2)cc1 | inactive: -0.384% | –
O=c1[nH]c(-c2ccccc2)nc2sc(-c3ccccc3)cc12 | – | inconclusive: 4.11 µM [activator, partial curve, poor fit]
CCc1ccc(CNc2ccc3c(c2)ncn3C)cc1 | – | inconclusive: 5.17 µM [activator, partial curve, poor fit]
CCOC(=O)C1CCCN(S(=O)(=O)c2cc(OCC(=O)NC3CCCCC3)c(C)cc2Cl)C1 (centres undefined) | inactive: -8.17% | –
Cc1ccnc(NC(=O)CNC(=O)C23CC4CC(CC(C4)C2)C3)c1 | – | inconclusive: 16.4 µM [activator, single point]
COc1ccc(-n2c(C)cc(C(=O)CN3CCCCC3)c2C)cc1 | inactive: -0.328% | –
O=C(Nc1ccccc1)c1ccc2c(c1)OCCO2 | – | inconclusive: 0.82 µM [activator, full curve, poor fit]
CCc1nc(Nc2ccncc2)c2oc3ccccc3c2n1 | inactive: -14.7% | –
CC(C)c1ccc(-n2nc3ccc(N)cc3n2)cc1 | – | inconclusive: 2.06 µM [activator, partial curve]
Cc1n[nH]c(C)c1Cc1c(F)cccc1Cl | inactive: -4.15% | –
CN(C)S(=O)(=O)c1cccc(-c2nnc(-c3ccccc3)o2)c1 | – | inconclusive: 11.2 µM [activator, partial curve]
CCOC(=O)N1CCC(NC(=O)CS(=O)Cc2nc(-c3ccccc3C)oc2C)CC1 (centres undefined) | inactive: -8.18% | –
Cc1cccc(NC(=S)N/C(=N/S(=O)(=O)c2ccccc2)c2ccccc2)c1 | – | inconclusive: 29.1 µM [activator, single point]
COc1ccc(C(=O)Nc2nc3ccccc3[nH]2)cc1 | – | inconclusive: 0.184 µM [activator, partial curve, poor fit]
FC(F)(F)c1cnc2c(c1)Nc1ccccc1S2 | – | inconclusive: 18.4 µM [activator, partial curve, poor fit]
O=C(CCc1nc2ccccc2[nH]1)NC1CCCCC1 | inactive: -3.96% | –
COc1ccc(Nc2cc(C)nc3ncnn23)c(OC)c1 | – | inconclusive: 29.1 µM [activator, partial curve, poor fit]
CC(=O)c1sc(NC(=O)c2ccc3c(c2)OCO3)nc1C | – | active: 10.3 µM
CN(CCc1ccccn1)C(=O)CCc1nnc(CCCc2ccccc2)o1 | – | inconclusive: 16.4 µM [activator, partial curve, poor fit]
Cc1ccc(Cn2ccc(O)c(Cc3ccccc3)c2=O)cc1 | – | inconclusive: 32.6 µM [activator, partial curve, poor fit]
O=C(NC(=S)Nc1nc2c(s1)CCCC2)c1ccccc1 | – | active: 5.17 µM
O=C(Nc1nc2c(F)cc(F)cc2s1)c1ccco1 | – | inconclusive: 2.31 µM [activator, full curve]
O=C(CCCCCCCC(=O)NNC(=O)Nc1ccccc1)NNC(=O)Nc1ccccc1 | – | inconclusive: 29.1 µM [activator, single point]
O=S(=O)(Nc1ccc(S(=O)(=O)N2CCCC2)cc1)c1ccc(F)cc1F | inactive: -0.783% | –

Structure (SMILES) | activity change, positive = activation | Potency
O=C(COC(=O)c1cccc(S(=O)(=O)NCc2ccccc2)c1)NCC1CCCO1 (centres undefined) | inactive: 1.27% | –
CCOCCCNC(=S)Nc1ccc(S(N)(=O)=O)cc1 | inactive: -0.938% | –
CCNc1nc(NC(C)C)nc(Oc2ccc(=O)n(C)n2)n1 | – | inconclusive: 20.6 µM [activator, single point]
CCCc1cc(C(=O)Nc2cc(C)on2)no1 | – | inconclusive: 18.4 µM [activator, partial curve, poor fit]
CCN1CCN(CCCNC(=O)CNC(=O)c2nn(-c3ccc(OC)cc3OC)c(=O)c3ccccc23)CC1 | inactive: 0.169% | –
CCOC(=O)c1c(C)oc2c1c(C(c1cccnc1)N1CCN(C)CC1)c(O)c1ccccc12 (centres undefined) | – | inconclusive: 32.6 µM [activator, partial curve, poor fit]
CCC(=O)Nc1ccc(-c2nn3c(C)nnc3s2)cc1C | – | inconclusive: 20.6 µM [activator, partial curve, poor fit]
COCc1cc(=O)oc2cc(NC(=O)c3ccc(C(C)(C)C)cc3)ccc12 | – | inconclusive: 13 µM [activator, partial curve, poor fit]
COc1ccc(Sc2cc(C(F)(F)F)nc(-c3ccccn3)n2)cc1 | inactive: 0.425% | –
COc1ccc(/C=N/NC(=O)c2nc(-c3ccccc3)cc(-c3ccccc3)n2)cc1OC | inactive: -1.04% | –
CN1CCC(=NNC(=O)C(=O)Nc2ccccc2)CC1 | inactive: 13.6% | –
Cc1ccc(-n2c(-c3nn(C)c(C)c3Cl)n[nH]c2=S)cc1 | inactive: 8.29% | –
Cc1cc(-c2nn(C)c(=O)c3ccccc23)cc(C)c1O | – | inconclusive: 14.6 µM [activator, partial curve]
c1ccc(-c2ccc3[nH]ccc3c2)cc1 | – | inconclusive: 14.6 µM [activator, partial curve, poor fit]
CCc1ccc(N2C(=O)Cc3c2nc(N)c(C#N)c3N)cc1 | – | inconclusive: 12.6 µM [activator, single point]
O=C(NN1C(=O)c2ccccc2NC1c1ccoc1)c1ccc([N+](=O)[O-])cc1 (centres undefined) | inactive: 14.2% | –
C/C(=N\NC(=O)CCc1ccccc1)C1C(=O)c2ccccc2C1=O | – | inconclusive: 23.1 µM [activator, partial curve, poor fit]
Cc1cc(N/N=C/c2ccccc2)nc(N)n1 | – | inconclusive: 23.1 µM [activator, partial curve]
FC(F)(F)c1ccnc(Oc2ccc(C3=NCCS3)cc2)c1 | – | inconclusive: 4.61 µM [activator, full curve]
CCS(=O)(=O)c1ccc2oc(Nc3ccccc3Br)nc2c1 | – | active: 10.3 µM
CCOC(=O)NC(=S)Nc1ccc(OC)cc1 | inactive: 14.7% | –
CCc1ccc2nc(N(CCCN(C)C)C(=O)c3ccc(S(=O)(=O)N(C)C4CCCCC4)cc3)sc2c1 | – | inconclusive: 20.6 µM [activator, single point]
CCn1c(SCC(=O)Nc2ccc3c(c2)OCO3)nnc1-c1cnccn1 | inactive: 1.36% | –
COc1cc(C#Cc2ccc3cc(CCCO)oc(=O)c3c2)cc(OC)c1 | – | inconclusive: 8.2 µM [activator, partial curve, poor fit]
COc1ccnc(-n2cccc2/C=N/O)c1C#N | inactive: -0.84% | –

Structure (SMILES) | activity change, positive = activation | Potency
O=C(NCC1CCCO1)c1cc2ccccc2oc1=O (centres undefined) | – | inconclusive: 18.3 µM [activator, partial curve, poor fit]
C#CCOCCOCCOCCNc1nc(N2CCN(C(=O)CCCCCCCCCCNC(=O)[C@H](CCCCN)n3cc(C[C@@H](C)CC)nn3)CC2)nc(N2CCN(C(=O)CCCCCCCCCCNC(=O)[C@H](CCCN=C(N)N)n3cc(C[C@@H](C)CC)nn3)CC2)n1 | inactive: -5.28% | –
Cc1nnc2ccc(-c3ccc(NS(=O)(=O)c4ccc(Cl)s4)cc3)nn12 | – | inconclusive: 16.4 µM [activator, partial curve]
Cc1cccc(/C(N)=N/OC(=O)c2ccc3c(c2)OCO3)c1 | – | active: 9.2 µM
Fc1ccccc1-c1cc2ccccc2cn1 | – | inconclusive: 23.1 µM [activator, single point]
Cc1ccc(N2CC(C(=O)Nc3ccc(N4CCOCC4)cc3)CC2=O)cc1C (centres undefined) | inactive: 8.1% | –
COc1c(O)cc2c(c1O)C(=O)CC(c1ccccc1)O2 (centres undefined) | – | inconclusive: 18.3 µM [activator, single point]
CCOc1cc(NC(=S)NCCOC)c(OCC)cc1NC(=O)c1ccco1 | inactive: -5.52% | –
CC1CCN(Cc2ccc(NC(=O)C3CCN(c4nnc(-n5cccc5)s4)CC3)cc2)CC1 | – | inconclusive: 32.6 µM [activator, single point]
Nc1ccc(-c2nc3c(ccc4ccccc43)[nH]2)cc1 | – | inconclusive: 10.3 µM [activator, partial curve]
O=C(CCc1nnc2ccc(NCc3ccccc3)nn12)NC1CCCC1 | – | inconclusive: 20.6 µM [activator, partial curve, poor fit]
CCNC(=S)N1CCN=C1Nc1nc(C)cc(C)n1 | – | inconclusive: 23.1 µM [activator, partial curve, poor fit]
CCOc1ccc(-c2cc(C(=O)N3CCN(C)CC3)c3ccccc3n2)cc1 | – | inconclusive: 2.31 µM [activator, full curve]
O=C1/C(=C\c2ccc(Br)o2)SC(=Nc2ccccc2)N1c1ccccc1 | inactive: -0.507% | –
COc1cccc(C2C=C(c3ccc(OC)cc3OC)Nc3nnnn32)c1 (centres undefined) | inactive: -15% | –
CC(=C/c1ccco1)/C=N/N1CCN(c2ccccc2)CC1 | – | inconclusive: 6.51 µM [activator, partial curve, poor fit]
COc1ccccc1N1CCN(/N=C\c2ccccc2)CC1 | – | inconclusive: 20.6 µM [activator, partial curve, poor fit]
COc1ccc2c(c1)CCc1c(C(=O)N(C)c3ccccc3)noc1-2 | – | inconclusive: 29.1 µM [activator, single point]
COC(CNC(=O)CN1CCN(Cc2ccccc2F)C1=O)OC | inactive: -3.15% | –
Oc1ccc(-c2nccc(-c3ccccn3)n2)cc1 | – | inconclusive: 13 µM [activator, partial curve, poor fit]
Cc1cc(C)c2nc(NC(=O)C3CCCO3)sc2c1 (centres undefined) | – | active: 3.55 µM
CCOc1ccccc1NC(=O)C1CCCN(c2c(CC)c(C)nc3ncnn23)C1 (centres undefined) | inactive: -17.1% | –
O=C(N/N=C1/CCc2ccccc21)C1CC1 | – | inconclusive: 13 µM [activator, partial curve, poor fit]
CC(=O)Nc1ccc(NC(=O)C2CCCN(S(=O)(=O)c3ccc(Cl)cc3)C2)cc1 (centres undefined) | – | inconclusive: 32.6 µM [activator, partial curve, poor fit]
